This is an account of results in the supplement of paper PMC12355420.

Each structure is given as a SMILES string. The list shows a part of the results. Most values come without repeats; read them as rough.
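Further: primary screen of an FDA-approved drug library in HeLa reporter cells in 96-well format, CellMask signal normalized to DMSO-treated wells set as 1, under 0.5 deemed highly cytotoxic.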

The subject of this assay is HeLa VPS33A reporter cells. The experiment in a line: relative cell viability (CellMask signal) vs DMSO (fraction of DMSO); HeLa model of a glycosaminoglycan (GAG) storage disease; KI is knock-in and KO knock-out; SDC1 is syndecan 1; higher = less cytotoxic. The conditions noted are these: 50 µM; 24 h.
`COc1ccc2c(c1)[nH]c1c(C)nccc12` [Harmine] displayed a relative cell viability of 0.243.
As for `N[C@@H](Cc1ccc(N(CCCl)CCCl)cc1)C(=O)O` [Melphalan], the figure is 0.00523.
`C/C(=C\c1csc(C)n1)[C@@H]1C[C@@H]2O[C@]2(C)CCC[C@H](C)[C@H](O)[C@@H](C)C(=O)C(C)(C)[C@@H](O)CC(=O)O1` [Epothilone B (EPO906, Patupilone)]: the relative cell viability came to 0.0904.
As for `NCC(CC(=O)O)c1ccc(Cl)cc1` (racemic) [(±)-Baclofen], the figure is 1.01.
Then `COc1cc2c(cc1OC)C1CC(=O)C(CC(C)C)CN1CC2` (configuration not stated) [Tetrabenazine], with 1.03; and `C[C@@H]1O[C@@H](O[C@H]2C[C@@H](O)[C@]3(CO)[C@H]4[C@H](O)C[C@]5(C)[C@@H](C6=CC(=O)OC6)CC[C@]5(O)[C@@H]4CC[C@]3(O)C2)[C@H](O)[C@H](O)[C@H]1O` [Ouabain], with 0.0879; and `[O-][n+]1ccccc1[S-].[O-][n+]1ccccc1[S-].[Zn+2]` [Zinc Pyrithione], with 0.00887.
The compound `COc1cc([C@@H]2c3cc4c(cc3[C@H](O)[C@H]3COC(=O)[C@@H]23)OCO4)cc(OC)c1OC` registered a relative cell viability of 0.146.
For the compound `C[C@]12CC[C@H]3[C@@H](CC[C@@]45O[C@@H]4C(O)=C(C#N)C[C@]35C)[C@@H]1CC[C@@H]2O` [Trilostane], the relative cell viability is 0.126.
As for `O=P1(N(CCCl)CCCl)NCCCO1` (configuration not stated) [Cyclophosphamide monohydrate], the figure is 1.05; as for `COc1ccc2[nH]cc(CCN)c2c1` [5-Methoxytryptamine], 1.05; as for `O=C1C=CC(=O)C=C1` [1,4-Benzoquinone], 0.00597.
